Laboratory results: the supplement of paper PMC8728848
The list shows a part of the results.

Assays:
Assay in all cases: glycan array binding signal (z-score within array); higher = stronger binding
Settings in all cases: glycan notation: IUPAC condensed, linker removed
[1] = molecular target: Fuc(a1-2)Gal
Procedure, shortened: (§1)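 Columns mapping to the same glycan were averaged after glycan names were converted to IUPAC-condensed notation. The data come from 3228 arrays in the Consortium for Functional Glycomics database, limited to those with an available protein sequence. Binding is reported as a within-array Z-score averaged across arrays of one protein sequence and across linkers.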

[2] = molecular target: Fuc(a1-2)Gal(b1-3)GalNAc
Procedure, shortened: as §1

[3] = molecular target: Fuc(a1-2)Gal(b1-3)GalNAc(a1-3)[Fuc(a1-2)]Gal(b1-4)Glc
Procedure, shortened: as §1

[4] = molecular target: Fuc(a1-2)Gal(b1-3)GalNAc(a1-3)[Fuc(a1-2)]Gal(b1-4)GlcNAc
Procedure, shortened: as §1

[5] = molecular target: Fuc(a1-2)Gal(b1-3)GalNAc(b1-3)Gal
Procedure, shortened: as §1

[6] = molecular target: Fuc(a1-2)Gal(b1-3)GalNAc(b1-3)Gal(a1-4)Gal(b1-4)Glc
Procedure, shortened: as §1

[7] = molecular target: Fuc(a1-2)Gal(b1-3)GalNAc(b1-4)[Neu5Ac(a2-3)]Gal(b1-4)Glc
Procedure, shortened: as §1

[8] = molecular target: Fuc(a1-2)Gal(b1-3)GlcNAc
Procedure, shortened: as §1

[9] = molecular target: Fuc(a1-2)Gal(b1-3)GlcNAc(b1-2)Man(a1-3)[Fuc(a1-2)Gal(b1-3)GlcNAc(b1-2)Man(a1-6)]Man(b1-4)GlcNAc(b1-4)GlcNAc
Procedure, shortened: as §1

[10] = molecular target: Fuc(a1-2)Gal(b1-3)GlcNAc(b1-2)Man(a1-3)[Fuc(a1-2)Gal(b1-3)GlcNAc(b1-2)Man(a1-6)]Man(b1-4)GlcNAc(b1-4)[Fuc(a1-6)]GlcNAc
Procedure, shortened: as §1

[11] = molecular target: Fuc(a1-2)Gal(b1-3)GlcNAc(b1-3)Gal(b1-4)Glc
Procedure, shortened: as §1

[12] = molecular target: Fuc(a1-2)Gal(b1-3)GlcNAc(b1-3)GalNAc
Procedure, shortened: as §1

[13] = molecular target: Fuc(a1-2)Gal(b1-3)GlcNAc(b1-3)[Fuc(a1-2)Gal(b1-3)GlcNAc(b1-6)]GalNAc
Procedure, shortened: as §1

[14] = molecular target: Fuc(a1-2)Gal(b1-3)GlcNAc(b1-3)[Gal(b1-4)GlcNAc(b1-6)]Gal(b1-4)Glc
Procedure, shortened: as §1

[15] = molecular target: Fuc(a1-2)Gal(b1-3)GlcNAc(b1-3)[Neu5Ac(a2-6)Gal(b1-4)GlcNAc(b1-6)]Gal(b1-4)Glc
Procedure, shortened: as §1

[16] = molecular target: Fuc(a1-2)Gal(b1-3)GlcNAc6S
Procedure, shortened: as §1

[17] = molecular target: Fuc(a1-2)Gal(b1-3)[Fuc(a1-4)]GlcNAc
Procedure, shortened: as §1

[18] = molecular target: Fuc(a1-2)Gal(b1-3)[Fuc(a1-4)]GlcNAc(b1-2)Man(a1-3)[Fuc(a1-2)Gal(b1-3)[Fuc(a1-4)]GlcNAc(b1-2)Man(a1-3)]Man(b1-4)GlcNAc(b1-4)GlcNAc
Procedure, shortened: as §1

[19] = molecular target: Fuc(a1-2)Gal(b1-3)[Fuc(a1-4)]GlcNAc(b1-2)Man(a1-3)[Fuc(a1-2)Gal(b1-3)[Fuc(a1-4)]GlcNAc(b1-2)Man(a1-6)]Man(b1-4)GlcNAc(b1-4)[Fuc(a1-6)]GlcNAc(b1-4)[Fuc(a1-6)]GlcNAc
Procedure, shortened: as §1

[20] = molecular target: Fuc(a1-2)Gal(b1-3)[Fuc(a1-4)]GlcNAc(b1-3)[Fuc(a1-3)[Gal(b1-4)]GlcNAc(b1-6)]Gal(b1-4)Glc
Procedure, shortened: as §1

[21] = molecular target: Fuc(a1-2)Gal(b1-3)[Fuc(a1-4)]GlcNAc(b1-3)[Gal(b1-4)GlcNAc(b1-6)]Gal(b1-4)Glc
Procedure, shortened: as §1

[22] = molecular target: Fuc(a1-2)Gal(b1-4)Glc
Procedure, shortened: as §1

[23] = molecular target: Fuc(a1-2)Gal(b1-4)Glc6S
Procedure, shortened: as §1

[24] = molecular target: Fuc(a1-2)Gal(b1-4)GlcNAc
Procedure, shortened: as §1

[25] = molecular target: Fuc(a1-2)Gal(b1-4)GlcNAc(b1-2)Man
Procedure, shortened: as §1

[26] = molecular target: Fuc(a1-2)Gal(b1-4)GlcNAc(b1-2)Man(a1-3)[Fuc(a1-2)Gal(b1-4)GlcNAc(b1-2)Man(a1-6)]Man(b1-4)GlcNAc(b1-4)GlcNAc
Procedure, shortened: as §1

[27] = molecular target: Fuc(a1-2)Gal(b1-4)GlcNAc(b1-2)Man(a1-3)[Fuc(a1-2)Gal(b1-4)GlcNAc(b1-2)Man(a1-6)]Man(b1-4)GlcNAc(b1-4)[Fuc(a1-6)]GlcNAc
Procedure, shortened: as §1

[28] = molecular target: Fuc(a1-2)Gal(b1-4)GlcNAc(b1-2)[Fuc(a1-2)Gal(b1-4)GlcNAc(b1-4)]Man(a1-3)[Fuc(a1-2)Gal(b1-4)GlcNAc(b1-2)Man(a1-6)]Man(b1-4)GlcNAc(b1-4)GlcNAc
Procedure, shortened: as §1

[29] = molecular target: Fuc(a1-2)Gal(b1-4)GlcNAc(b1-3)Gal(b1-4)GlcNAc
Procedure, shortened: as §1

[30] = molecular target: Fuc(a1-2)Gal(b1-4)GlcNAc(b1-3)Gal(b1-4)GlcNAc(b1-2)Man(a1-3)[Fuc(a1-2)Gal(b1-4)GlcNAc(b1-3)Gal(b1-4)GlcNAc(b1-2)Man(a1-6)]Man(b1-4)GlcNAc(b1-4)GlcNAc
Procedure, shortened: as §1

B1: FGFR2-Fc (protein)
chain: MVNVTDAISSGDDEDDTDGAEDFVSENSNNKRAPYWTNTEKMEKRLHAVPAANTVKFRCPAGGNPMPTMRWLKNGKEFKQEHRIGGYKVRNQHWSLIMESVVPSDKGNYTCVVENEYGSINHTYHLDVVERSPHRPILQAGLPANASTVVGGDVEFVCKVYSDAQPHIQWIKHVEKNGSKYGPDGLPYLKVLKHSGINSSNAEVLALFNVTEADAGEYICKVSNYIGQANQSAWLTVLPKQQAPGREKEITASPDYLETRPLEQKLISEEDLAANDILDYKDDDDKV
glycan array binding signal (z-score) [1]: -0.045
glycan array binding signal (z-score) [2]: -0.061
glycan array binding signal (z-score) [3]: -0.02
glycan array binding signal (z-score) [4]: -0.172
glycan array binding signal (z-score) [5]: -0.249
glycan array binding signal (z-score) [6]: -0.351
glycan array binding signal (z-score) [7]: -0.072
glycan array binding signal (z-score) [8]: -0.144
glycan array binding signal (z-score) [9]: -0.319
glycan array binding signal (z-score) [10]: 0.195
glycan array binding signal (z-score) [11]: -0.099
glycan array binding signal (z-score) [12]: -0.369
glycan array binding signal (z-score) [13]: 0.041
glycan array binding signal (z-score) [14]: 0.277
glycan array binding signal (z-score) [15]: -0.436
glycan array binding signal (z-score) [16]: 0.087
glycan array binding signal (z-score) [17]: -0.345
glycan array binding signal (z-score) [18]: -0.195
glycan array binding signal (z-score) [19]: 0.4
glycan array binding signal (z-score) [20]: 0.044
glycan array binding signal (z-score) [21]: -0.452
glycan array binding signal (z-score) [22]: -0.612
glycan array binding signal (z-score) [23]: 0.039
glycan array binding signal (z-score) [24]: 0.369
glycan array binding signal (z-score) [25]: 0.252
glycan array binding signal (z-score) [26]: -0.068
glycan array binding signal (z-score) [27]: 0.141
glycan array binding signal (z-score) [28]: 0.308
glycan array binding signal (z-score) [29]: -0.25
glycan array binding signal (z-score) [30]: 0.021
